Results published in the supplement of paper PMC10126150.
Values marked as one replicate rest on one cluster of the flow cell; about a third of the high ones do not repeat.

Tested on: ATP
Test: switch fluorescence ratio, 500 uM ATP over buffer (Cy3 cluster intensity, sum of 5 cycles each) (fold (ratio)); higher = stronger signal-on switching upon ATP binding; sequences stand for … in TCGTCGGCAGCGTCAGATGTGTATAAGAGACAGTTTTTTTTTTTTTTTTTTTTTTTTT…TC
Conditions: aptamer strand: ATP DNA aptamer (quencher-CACCTGGGGGAGTATTGCGGAGGAAGG + anchor), 100 nM annealed; ATP concentration: 500 uM; one replicate
Procedure, shortened: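 The fluorescence ratio divides summed target-cycle Cy3 intensity by summed buffer-cycle Cy3 intensity for each cluster and is averaged per switch-domain sequence. Cy3-labelled switching-strand clusters on a modified Illumina MiSeq flow-cell were annealed to 100 nM quencher-labelled ATP aptamer, then imaged in selection buffer and again after 15 min with 500 uM ATP at 22 °C. Five such cycles were run, with NaOH stripping and re-annealing between them, and clusters outside 100-1000 RFU were excluded.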
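Also: ATP exposure 15 min at 22 °C before imaging.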

Sequence	switch fluorescence ratio
AATAATAGTC	0.968
AGATACTATT	1.03
TATATAACAG	0.987
TGGCTTGACC	1
TATTGACAAT	1.04
AATTGCAAAG	1
GCCTTCCAAC	3.22
CACAGTTTTA	1.03
GTTACCTCGA	1.03
TACCGCGCCC	1.82
AGCGGGGTCT	1.02
ATAGTTGCCA	0.982
GTAGTAAATT	1.08
GATGCTTCCA	0.981
AATTCTCGTA	0.986
TGGTCTGAG	1
ACCGACAGGT	1.03
TCCGGATAT	1.17
ATGGACTTA	1.11
TATTGGGACA	0.988
ACCGTAAATA	1.44
ATAAGTGAGC	0.994
GTGTCATTAC	1.16
GCGTTTTGAC	1
TAAGTCTTTA	1.01

Sequence	switch fluorescence ratio
GTTATGGTTA	0.998
GGCCTACTGT	1.02
AAGCAGCCAC	1.2
GTGTTGTAGG	1.01
CACAGCGGTC	1.36
TAGATGTCGT	1.01
TGCGTGGAGT	1
GTACTGAAGA	1.01
GAGGAAATGT	0.952
GCTTCTGGAC	1.05
CTAAGATAAA	1.02
GTGTTGGTGG	1.04
CGTGGAACAA	1.04
CTCTGCCGGG	1.17
GCTGTACCCC	1.43
GGAAGTGGAG	0.973
GGCGTAACGG	1.02
GATTGTCCTG	1.04
GCCCGTTTAT	1.05
GCCCGTTCTA	0.977
CGACCAGCTC	1.57
CGGGGCTCAT	1.02
AATTCGTGTA	0.982
GCGCTAATCT	1.17
TTGCCAGTAT	1.01

Sequence	switch fluorescence ratio
GCGTGGTGGG	1.05
TTCTCTTCTC	1.01
TGAGAACGCT	1.06
CTCTTGGGGG	1.2
ATTAGTCCAC	1.04
CGCATCGATG	1.02
TGTGGGCGTT	1.02
TTTGGTGTGG	0.966
GAAGCTAAAA	1.03
ACGTAGCGGT	2.48
GGGAGAGCT	0.992
GTGGGAATGA	0.983
GAGGGCAAGG	1.04
TTTGCTATGA	0.978
CATCTATCAA	1.04
TACTTTTGTC	1.01
TGTGTGAGTC	1.07
GTGGGTTCGT	1.05
CGCCGCCTTT	1.22
GAAATGGTAC	1
GGCTGACTCG	1.04
GTCTTTAAAG	1.01
ATACTATTTA	0.966
ATCGCCGACT	1.01
AACATGGGAG	1.01

Sequence	switch fluorescence ratio
TACCTGCTGG	1.07
TTGTTCAGGT	0.983
ATAGGTGAAT	0.982
AGCTGGCTAT	1.02
TACAGTCTTC	1.05
TATCGGTTTC	0.986
TAGTGCCCCA	1.04
AACATTACAG	1.18
GGATCACGGG	0.978
GTCGTAGAGT	0.966
GCTCTCAGAG	1
AGATCCGCGG	0.997
ATTGTGTTGT	0.976
TAGCAAATTT	0.994
TCGCCATAGA	1.06
TTCATACCCT	1.06
CTTGTGTCCT	1.02
TAGAAAACGT	1.04
ACATCTGTTG	0.968
AGGATTGAGC	1.02
ATTTAATTGA	0.973
ATGCGCAACT	1.17
TCAAAAAGTC	0.977
GAACCCCCGG	0.986
GGGATCTTTC	1.03

Sequence	switch fluorescence ratio
GTGATGCGTC	1
AGGGATTATC	0.958
GACCACGGTT	1.05
CTAATCGTAC	1.13
TGGGCTGAGT	1.01
TCCGTATTAA	1.59
TAGTGATTCG	0.991
AACGGTGGAG	0.988
TACGAGCGAG	1.04
AACTGTGTTA	1
ACTAAAGTCA	1.06
CTTCTATGTA	1.03
AGTTATCTAT	1.03
AATTGAAGTC	0.934
CTCAGTTCTG	0.974
TCGGTCATAT	0.999
AGCTTCAAGG	0.966
GTAATACTAA	1.1
TACTCACTAC	1.44
TGGCGTAGAG	1.01
GGTCCATTTA	0.98
TAGAGCATGG	0.979
CCTGAGGCCA	1.07
TAGGCATCTC	0.941
AAGAAAATAG	2.11

Sequence	switch fluorescence ratio
GCATTGCTCG	1.04
AAGGAACTAT	1
GATGAGTTTT	1.02
CACCTGCTTC	1.11
ATAGAATGTT	1.02
AGAATGCCGG	1.05
ATGCCTTAAA	0.931
TAAGATTAAT	0.998
CGCGAACTAT	1.01
GCGCTCTGCG	1.04
ATCTCATATA	1.03
CAATACAGGA	1.05
ACTTCTCCCG	1.52
TAAGAGCCGC	0.972
CTGGGTGGT	0.939
GAGAGATGCT	0.971
TTTGCCGAAA	1.01
TGCTACCGTT	0.973
TTCGAACCTG	1.04
GGAGCGACTC	1.48
ATCAGAACGA	1.03
AGAGTCAATC	1.04
GGATTTGTT	0.963
TGACATCGAT	0.99
ATCTCCTCGC	1.73

Sequence	switch fluorescence ratio
TTCTGGTTCT	0.98
GCAAGCCTGG	1.01
GGTCTACTAA	0.999
GTAATTGCGA	1.02
GCCCTGTCAG	1.02
GGTTGACCCG	1.08
GATAAAGGCT	1.04
AATCGGACAT	1.04
AGAGGAATTA	0.99
TAATCGCTTC	1.05
TTTATCGAAC	1.03
AGGGTCGGCA	1.02
TGGTTGATTT	0.972
ACTTTTTAGC	0.934
CAGGTATCGG	1.02
GAAAATACTA	0.964
TGCTGTTTTG	0.97
TAGAGTAATG	1.02
GTTGTCAGGC	1
TGAAGCCGGT	0.949
CAACTGTTAT	1.09
AGGAACTTGC	1.37
AAAGAGACGG	1.03
ATTGCTGTCT	1.05
GAGCGGGTGA	1.05

Sequence	switch fluorescence ratio
CGCCACCTCT	1.01
TACCGCTCT	1.03
TAAGGAGGCG	0.989
CAGGGGGAAG	1.04
TCCCGAGTTT	1.05
GACCGTCCCC	1.17
GTGATAGCTG	0.938
ATTCCTTCTA	1.02
CTCAAATCGA	1.01
AAAGTGAGCG	0.963
GCGCGACGTC	1.01
ACTAGGAACA	1.05
GGTGACTGAC	1.1
GGCCTTGTTC	0.98
CAGTGTCTCG	0.96
AGCCATGTTG	1.01
TCCGACCTAG	1.08
AAGTAGCAGG	0.993
GTGAGATGCG	0.996
GGATATGGTC	0.967
CCTTACCAGG	2.2
ATAAAAAACC	1.12
TCCGATAGGA	1.01
ATTGAAAGTC	0.994
CATAATGGTA	0.951
